Laboratory results: the supplement of paper PMC5895741

B1: MS2 coat protein; the commonest letter at each place (parent)
chain: MASNFTQFVLVDNGGTGDVTVAPSNFANGVAEWISSNSRSQAYKVTCSVRQSSAQNRKYTIKVEVPKVATQTVGGVELPVAAWRSYLNMELTIPIFATNSDCELIVKAMQGLLKDGNPIPSAIAANSGIY

Variants of: B1
Assay: apparent fitness score (VLP assembly selection enrichment vs plasmid library) (log10 ratio); higher = better expression / assembly into well-formed VLPs
Procedure: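 SyMAPS: NNK codon saturation mutagenesis of every codon of the MS2 bacteriophage coat protein (EMPIRIC cloning), expressed overnight in E. coli DH10B at 37 °C. Assembled VLPs were selected by ammonium sulfate precipitation plus FPLC size-exclusion chromatography, and the encapsidated RNA was sequenced. Apparent fitness score = log10 of the mean over 3 biological replicates of (percent abundance in the VLP library / percent abundance in the plasmid library). Variants absent after selection were set to 0.0001, i.e. -4.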
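Note: counts from Illumina MiSeq reads, cDNA of packaged RNA versus plasmid DNA taken before selection, each replicate independent from library construction onward, expression induced with 0.1% arabinose.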

Row | Variant | apparent fitness score (log10)
1 | MASNETQFVLVDNGGTGDVTVAPSNFANGVAEWISSNSRSQAYKVTCSVRQSSAQNRKYTIKVEVPKVATQTVGGVELPVAAWRSYLNMELTIPIFATNSDCELIVKAMQGLLKDGNPIPSAIAANSGIY [F5E] | -0.544
2 | MASNGTQFVLVDNGGTGDVTVAPSNFANGVAEWISSNSRSQAYKVTCSVRQSSAQNRKYTIKVEVPKVATQTVGGVELPVAAWRSYLNMELTIPIFATNSDCELIVKAMQGLLKDGNPIPSAIAANSGIY [F5G] | -0.774
3 | MASNHTQFVLVDNGGTGDVTVAPSNFANGVAEWISSNSRSQAYKVTCSVRQSSAQNRKYTIKVEVPKVATQTVGGVELPVAAWRSYLNMELTIPIFATNSDCELIVKAMQGLLKDGNPIPSAIAANSGIY [F5H] | -0.0663
4 | MASNITQFVLVDNGGTGDVTVAPSNFANGVAEWISSNSRSQAYKVTCSVRQSSAQNRKYTIKVEVPKVATQTVGGVELPVAAWRSYLNMELTIPIFATNSDCELIVKAMQGLLKDGNPIPSAIAANSGIY [F5I] | -0.485
5 | MASNKTQFVLVDNGGTGDVTVAPSNFANGVAEWISSNSRSQAYKVTCSVRQSSAQNRKYTIKVEVPKVATQTVGGVELPVAAWRSYLNMELTIPIFATNSDCELIVKAMQGLLKDGNPIPSAIAANSGIY [F5K] | -1.85
6 | MASNLTQFVLVDNGGTGDVTVAPSNFANGVAEWISSNSRSQAYKVTCSVRQSSAQNRKYTIKVEVPKVATQTVGGVELPVAAWRSYLNMELTIPIFATNSDCELIVKAMQGLLKDGNPIPSAIAANSGIY [F5L] | 0.205
7 | MASNMTQFVLVDNGGTGDVTVAPSNFANGVAEWISSNSRSQAYKVTCSVRQSSAQNRKYTIKVEVPKVATQTVGGVELPVAAWRSYLNMELTIPIFATNSDCELIVKAMQGLLKDGNPIPSAIAANSGIY [F5M] | -1.01
8 | MASNNTQFVLVDNGGTGDVTVAPSNFANGVAEWISSNSRSQAYKVTCSVRQSSAQNRKYTIKVEVPKVATQTVGGVELPVAAWRSYLNMELTIPIFATNSDCELIVKAMQGLLKDGNPIPSAIAANSGIY [F5N] | -0.492
9 | MASNPTQFVLVDNGGTGDVTVAPSNFANGVAEWISSNSRSQAYKVTCSVRQSSAQNRKYTIKVEVPKVATQTVGGVELPVAAWRSYLNMELTIPIFATNSDCELIVKAMQGLLKDGNPIPSAIAANSGIY [F5P] | -0.657
10 | MASNQTQFVLVDNGGTGDVTVAPSNFANGVAEWISSNSRSQAYKVTCSVRQSSAQNRKYTIKVEVPKVATQTVGGVELPVAAWRSYLNMELTIPIFATNSDCELIVKAMQGLLKDGNPIPSAIAANSGIY [F5Q] | 0.0695
11 | MASNRTQFVLVDNGGTGDVTVAPSNFANGVAEWISSNSRSQAYKVTCSVRQSSAQNRKYTIKVEVPKVATQTVGGVELPVAAWRSYLNMELTIPIFATNSDCELIVKAMQGLLKDGNPIPSAIAANSGIY [F5R] | -0.503
12 | MASNSTQFVLVDNGGTGDVTVAPSNFANGVAEWISSNSRSQAYKVTCSVRQSSAQNRKYTIKVEVPKVATQTVGGVELPVAAWRSYLNMELTIPIFATNSDCELIVKAMQGLLKDGNPIPSAIAANSGIY [F5S] | -0.131
13 | MASNTTQFVLVDNGGTGDVTVAPSNFANGVAEWISSNSRSQAYKVTCSVRQSSAQNRKYTIKVEVPKVATQTVGGVELPVAAWRSYLNMELTIPIFATNSDCELIVKAMQGLLKDGNPIPSAIAANSGIY [F5T] | -0.9
14 | MASNVTQFVLVDNGGTGDVTVAPSNFANGVAEWISSNSRSQAYKVTCSVRQSSAQNRKYTIKVEVPKVATQTVGGVELPVAAWRSYLNMELTIPIFATNSDCELIVKAMQGLLKDGNPIPSAIAANSGIY [F5V] | -0.417
15 | MASNWTQFVLVDNGGTGDVTVAPSNFANGVAEWISSNSRSQAYKVTCSVRQSSAQNRKYTIKVEVPKVATQTVGGVELPVAAWRSYLNMELTIPIFATNSDCELIVKAMQGLLKDGNPIPSAIAANSGIY [F5W] | -1.18
16 | MASNYTQFVLVDNGGTGDVTVAPSNFANGVAEWISSNSRSQAYKVTCSVRQSSAQNRKYTIKVEVPKVATQTVGGVELPVAAWRSYLNMELTIPIFATNSDCELIVKAMQGLLKDGNPIPSAIAANSGIY [F5Y] | 0.221
17 | MASNFAQFVLVDNGGTGDVTVAPSNFANGVAEWISSNSRSQAYKVTCSVRQSSAQNRKYTIKVEVPKVATQTVGGVELPVAAWRSYLNMELTIPIFATNSDCELIVKAMQGLLKDGNPIPSAIAANSGIY [T6A] | 0.557
18 | MASNFCQFVLVDNGGTGDVTVAPSNFANGVAEWISSNSRSQAYKVTCSVRQSSAQNRKYTIKVEVPKVATQTVGGVELPVAAWRSYLNMELTIPIFATNSDCELIVKAMQGLLKDGNPIPSAIAANSGIY [T6C] | 0.143
19 | MASNFDQFVLVDNGGTGDVTVAPSNFANGVAEWISSNSRSQAYKVTCSVRQSSAQNRKYTIKVEVPKVATQTVGGVELPVAAWRSYLNMELTIPIFATNSDCELIVKAMQGLLKDGNPIPSAIAANSGIY [T6D] | 0.999
20 | MASNFEQFVLVDNGGTGDVTVAPSNFANGVAEWISSNSRSQAYKVTCSVRQSSAQNRKYTIKVEVPKVATQTVGGVELPVAAWRSYLNMELTIPIFATNSDCELIVKAMQGLLKDGNPIPSAIAANSGIY [T6E] | -1.28
21 | MASNFFQFVLVDNGGTGDVTVAPSNFANGVAEWISSNSRSQAYKVTCSVRQSSAQNRKYTIKVEVPKVATQTVGGVELPVAAWRSYLNMELTIPIFATNSDCELIVKAMQGLLKDGNPIPSAIAANSGIY [T6F] | -1.09
22 | MASNFGQFVLVDNGGTGDVTVAPSNFANGVAEWISSNSRSQAYKVTCSVRQSSAQNRKYTIKVEVPKVATQTVGGVELPVAAWRSYLNMELTIPIFATNSDCELIVKAMQGLLKDGNPIPSAIAANSGIY [T6G] | -0.0157

Row | Variant | apparent fitness score (log10)
23 | MASNFHQFVLVDNGGTGDVTVAPSNFANGVAEWISSNSRSQAYKVTCSVRQSSAQNRKYTIKVEVPKVATQTVGGVELPVAAWRSYLNMELTIPIFATNSDCELIVKAMQGLLKDGNPIPSAIAANSGIY [T6H] | 0.39
24 | MASNFIQFVLVDNGGTGDVTVAPSNFANGVAEWISSNSRSQAYKVTCSVRQSSAQNRKYTIKVEVPKVATQTVGGVELPVAAWRSYLNMELTIPIFATNSDCELIVKAMQGLLKDGNPIPSAIAANSGIY [T6I] | 0.802
25 | MASNFKQFVLVDNGGTGDVTVAPSNFANGVAEWISSNSRSQAYKVTCSVRQSSAQNRKYTIKVEVPKVATQTVGGVELPVAAWRSYLNMELTIPIFATNSDCELIVKAMQGLLKDGNPIPSAIAANSGIY [T6K] | < -4
26 | MASNFLQFVLVDNGGTGDVTVAPSNFANGVAEWISSNSRSQAYKVTCSVRQSSAQNRKYTIKVEVPKVATQTVGGVELPVAAWRSYLNMELTIPIFATNSDCELIVKAMQGLLKDGNPIPSAIAANSGIY [T6L] | -0.158
27 | MASNFMQFVLVDNGGTGDVTVAPSNFANGVAEWISSNSRSQAYKVTCSVRQSSAQNRKYTIKVEVPKVATQTVGGVELPVAAWRSYLNMELTIPIFATNSDCELIVKAMQGLLKDGNPIPSAIAANSGIY [T6M] | -0.786
28 | MASNFNQFVLVDNGGTGDVTVAPSNFANGVAEWISSNSRSQAYKVTCSVRQSSAQNRKYTIKVEVPKVATQTVGGVELPVAAWRSYLNMELTIPIFATNSDCELIVKAMQGLLKDGNPIPSAIAANSGIY [T6N] | 0.23
29 | MASNFPQFVLVDNGGTGDVTVAPSNFANGVAEWISSNSRSQAYKVTCSVRQSSAQNRKYTIKVEVPKVATQTVGGVELPVAAWRSYLNMELTIPIFATNSDCELIVKAMQGLLKDGNPIPSAIAANSGIY [T6P] | -1.34
30 | MASNFQQFVLVDNGGTGDVTVAPSNFANGVAEWISSNSRSQAYKVTCSVRQSSAQNRKYTIKVEVPKVATQTVGGVELPVAAWRSYLNMELTIPIFATNSDCELIVKAMQGLLKDGNPIPSAIAANSGIY [T6Q] | 0.812
31 | MASNFRQFVLVDNGGTGDVTVAPSNFANGVAEWISSNSRSQAYKVTCSVRQSSAQNRKYTIKVEVPKVATQTVGGVELPVAAWRSYLNMELTIPIFATNSDCELIVKAMQGLLKDGNPIPSAIAANSGIY [T6R] | -1.33
32 | MASNFSQFVLVDNGGTGDVTVAPSNFANGVAEWISSNSRSQAYKVTCSVRQSSAQNRKYTIKVEVPKVATQTVGGVELPVAAWRSYLNMELTIPIFATNSDCELIVKAMQGLLKDGNPIPSAIAANSGIY [T6S] | 0.0286
33 | MASNFVQFVLVDNGGTGDVTVAPSNFANGVAEWISSNSRSQAYKVTCSVRQSSAQNRKYTIKVEVPKVATQTVGGVELPVAAWRSYLNMELTIPIFATNSDCELIVKAMQGLLKDGNPIPSAIAANSGIY [T6V] | 0.624
34 | MASNFWQFVLVDNGGTGDVTVAPSNFANGVAEWISSNSRSQAYKVTCSVRQSSAQNRKYTIKVEVPKVATQTVGGVELPVAAWRSYLNMELTIPIFATNSDCELIVKAMQGLLKDGNPIPSAIAANSGIY [T6W] | < -4
35 | MASNFYQFVLVDNGGTGDVTVAPSNFANGVAEWISSNSRSQAYKVTCSVRQSSAQNRKYTIKVEVPKVATQTVGGVELPVAAWRSYLNMELTIPIFATNSDCELIVKAMQGLLKDGNPIPSAIAANSGIY [T6Y] | -0.738
36 | MASNFTAFVLVDNGGTGDVTVAPSNFANGVAEWISSNSRSQAYKVTCSVRQSSAQNRKYTIKVEVPKVATQTVGGVELPVAAWRSYLNMELTIPIFATNSDCELIVKAMQGLLKDGNPIPSAIAANSGIY [Q7A] | 0.862
37 | MASNFTCFVLVDNGGTGDVTVAPSNFANGVAEWISSNSRSQAYKVTCSVRQSSAQNRKYTIKVEVPKVATQTVGGVELPVAAWRSYLNMELTIPIFATNSDCELIVKAMQGLLKDGNPIPSAIAANSGIY [Q7C] | -0.483
38 | MASNFTDFVLVDNGGTGDVTVAPSNFANGVAEWISSNSRSQAYKVTCSVRQSSAQNRKYTIKVEVPKVATQTVGGVELPVAAWRSYLNMELTIPIFATNSDCELIVKAMQGLLKDGNPIPSAIAANSGIY [Q7D] | 0.871
39 | MASNFTEFVLVDNGGTGDVTVAPSNFANGVAEWISSNSRSQAYKVTCSVRQSSAQNRKYTIKVEVPKVATQTVGGVELPVAAWRSYLNMELTIPIFATNSDCELIVKAMQGLLKDGNPIPSAIAANSGIY [Q7E] | -0.577
40 | MASNFTFFVLVDNGGTGDVTVAPSNFANGVAEWISSNSRSQAYKVTCSVRQSSAQNRKYTIKVEVPKVATQTVGGVELPVAAWRSYLNMELTIPIFATNSDCELIVKAMQGLLKDGNPIPSAIAANSGIY [Q7F] | -1.01
41 | MASNFTGFVLVDNGGTGDVTVAPSNFANGVAEWISSNSRSQAYKVTCSVRQSSAQNRKYTIKVEVPKVATQTVGGVELPVAAWRSYLNMELTIPIFATNSDCELIVKAMQGLLKDGNPIPSAIAANSGIY [Q7G] | -0.22
42 | MASNFTHFVLVDNGGTGDVTVAPSNFANGVAEWISSNSRSQAYKVTCSVRQSSAQNRKYTIKVEVPKVATQTVGGVELPVAAWRSYLNMELTIPIFATNSDCELIVKAMQGLLKDGNPIPSAIAANSGIY [Q7H] | 0.93
43 | MASNFTIFVLVDNGGTGDVTVAPSNFANGVAEWISSNSRSQAYKVTCSVRQSSAQNRKYTIKVEVPKVATQTVGGVELPVAAWRSYLNMELTIPIFATNSDCELIVKAMQGLLKDGNPIPSAIAANSGIY [Q7I] | -0.401
44 | MASNFTKFVLVDNGGTGDVTVAPSNFANGVAEWISSNSRSQAYKVTCSVRQSSAQNRKYTIKVEVPKVATQTVGGVELPVAAWRSYLNMELTIPIFATNSDCELIVKAMQGLLKDGNPIPSAIAANSGIY [Q7K] | 0.773
